Biological target: the molecule itself
Test: SEC + other: dynamic light scattering; analytical SEC: 100 µL of 1 mg/mL FLAG-tagged NLRP3ΔPYD on Superose 6 Increase 10/300, 20 mM HEPES pH 7.5, 200 mM NaCl, 1 mM MgCl2, 2 mM DTT, size by calibration standards; DLS at 10 °C in the same buffer; self-association

B1: human NLRP3 lacking the PYD (NLRP3ΔPYD, […]), FLAG-tagged (domain or fragment)
chain: not shown
notes: NLRP3, human, N-terminally truncated, […] (lacks the pyrin domain); also called wild-type NLRP3ΔPYD; PYD-deleted NLRP3
binding result: binds

Source: paper PMC9499477, “The Inflammasome Activity of NLRP3 Is Independent of NEK7 in HEK293 Cells Co-Expressing ASC” (International Journal of Molecular Sciences, 2022)
